Data on 94 sequences can be found in publication PMC6212790.

The list shows a part of the results. At the low end of the ranking, values are background and their order means little.

This assay concerns the target T1, GST-Rok-C97-191 (UniProt O34857).
T1 sequence: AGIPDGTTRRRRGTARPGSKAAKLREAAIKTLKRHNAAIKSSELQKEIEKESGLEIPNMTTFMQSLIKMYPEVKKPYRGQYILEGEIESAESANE
Briefly: protein binding microarray.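 Further: rank score from −0.5 (least bound) to 0.5 (best bound).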 The note with it: Rok is a gene silencer of Bacillus subtilis; high values mean tight binding; most listed sequences are background and not binding sites; double strand, one strand shown.
As for AAGGCCCA, the binding signal was -0.167 E-score.

As for TCAATTGA, the binding signal is 0.148 E-score.

With GACTAGTC, the binding signal turned out to be 0.0585 E-score.

Regarding TAGATCGA, the binding signal is 0.184 E-score.

Consider CCCCCGCG, for which the binding signal was -0.134 E-score.

With GAATCTCA, the binding signal was -0.149 E-score.

As to TATAACGA, the binding signal amounted to 0.336 E-score.

As to CGTCAGCC, the binding signal was -0.124 E-score.

As for AGCATGAT, the binding signal came to 0.161 E-score.

With AGGGCTGG, the binding signal was -0.235 E-score.

Regarding CTCGATGC, the binding signal was -0.0432 E-score.

The sequence AAGACAGC showed a binding signal of -0.184 E-score.

On to AGCCGCGC, for which the binding signal was -0.129 E-score.

Take CATAGCCA: the binding signal is -0.0756 E-score.

For the sequence GGTCATCA, the binding signal was -0.165 E-score.

As to CTTACCGA, the binding signal came out at 0.0281 E-score.

Regarding CGGTGTCC, the binding signal is -0.364 E-score.

Sequence AGACCGCT returned a binding signal of -0.264 E-score.

Take GATTTACA: the binding signal amounted to 0.17 E-score.

CACATTTC came in with a binding signal of 0.224 E-score.

For the sequence CCCACCCA, the binding signal was -0.0813 E-score.

Sequence CTCAAACC had a binding signal of -0.112 E-score.

Consider TATCGGAA, for which the binding signal stood at 0.131 E-score.

GTTCAGCA returned a binding signal of 0.0486 E-score.

For AGTTGAAA, the binding signal came out at 0.0127 E-score.

The sequence CATCCGAG returned a binding signal of -0.0562 E-score.

AAGTGCCT: the binding signal was -0.00517 E-score.

As for CATACGCG, the binding signal was found to be 0.0157 E-score.

As for TTACCTAA, the binding signal was found to be 0.307 E-score.

In turn, AGCCAGCT gave a binding signal of -0.19 E-score.

Sequence ACAATAGT displayed a binding signal of 0.233 E-score.

Sequence AATTCTTG showed a binding signal of 0.0644 E-score.

On to CACTTTGG, for which the binding signal was -0.0473 E-score.

ACGAACAA gave a binding signal of 0.08 E-score.

Sequence ACGATTAG displayed a binding signal of -0.0748 E-score.

AACGACAT returned a binding signal of 0.196 E-score.

With CCATGCTA, the binding signal turned out to be 0.153 E-score.

ACCCAAAA gave a binding signal of 0.0965 E-score.

The sequence CCGCGCGG had a binding signal of -0.127 E-score.

Regarding GAAACTTA, the binding signal was determined as 0.267 E-score.

As for CGCAAGTC, the binding signal was -0.0825 E-score.

Regarding ATACGGTA, the binding signal turned out to be 0.278 E-score.

As to ACAGCACA, the binding signal was 0.107 E-score.

Turning to AGGCGCGC, the binding signal is -0.315 E-score.

With ATTCTTCA, the binding signal amounted to 0.0472 E-score.

Sequence AAGGACGT returned a binding signal of -0.0237 E-score.

In the case of AGAATAAG, the binding signal is 0.185 E-score.

In turn, AAGTGCGC registered a binding signal of 0.0257 E-score.

CTCCAGTA came in with a binding signal of -0.0378 E-score.

GCCTCACA displayed a binding signal of -0.143 E-score.

CAGTATTC: the binding signal is -0.233 E-score.

As for CACGTGAA, the binding signal was -0.0163 E-score.

Sequence GAATGAGA yielded a binding signal of -0.0102 E-score.

Consider GGTAGCAA, for which the binding signal is 0.239 E-score.

In the case of AGTTGCCG, the binding signal is -0.136 E-score.

Take ACATACCG: the binding signal was determined as 0.239 E-score.

Take ACCCAGGC: the binding signal was -0.329 E-score.

On to GTTTTGGA, for which the binding signal was -0.132 E-score.

For CTCGTATA, the binding signal was 0.0281 E-score.

As to GTGCGACA, the binding signal is -0.095 E-score.

In turn, GATTGAGC showed a binding signal of -0.0279 E-score.

Regarding CTGACATA, the binding signal was -0.188 E-score.

CATTACTA registered a binding signal of 0.32 E-score.

TACCTAAA: the binding signal turned out to be 0.369 E-score.

AGGCGATG had a binding signal of -0.0796 E-score.

As to GAGCCCGC, the binding signal was -0.242 E-score.

Turning to GACACGCA, the binding signal is -0.104 E-score.

Consider CATGGACA, for which the binding signal is -0.0157 E-score.

Consider ATGGCTGC, for which the binding signal is -0.2 E-score.

Take CTGGGGGA: the binding signal is -0.35 E-score.

Consider ACAGGATG, for which the binding signal was -0.113 E-score.

Turning to ATATACGA, the binding signal is 0.199 E-score.

Regarding GATTAAGA, the binding signal amounted to 0.0702 E-score.

Regarding CGGCGCTC, the binding signal is -0.257 E-score.

Regarding GAATAATA, the binding signal amounted to 0.349 E-score.

With GGGATTGA, the binding signal is -0.136 E-score.

AAGTAGCG returned a binding signal of 0.125 E-score.

As for AGGAGGCG, the binding signal was -0.398 E-score.

Consider ATCTTGTG, for which the binding signal was -0.0744 E-score.

GACTGATC: the binding signal was -0.282 E-score.

Sequence CACGTAAA had a binding signal of 0.0505 E-score.

In turn, CTATCCCA returned a binding signal of 0.0785 E-score.

For the sequence ATGTAAAA, the binding signal was 0.351 E-score.

The sequence CGTGATAG yielded a binding signal of 0.0722 E-score.

Sequence ACCAGCTA had a binding signal of 0.206 E-score.

With TCTGTAAA, the binding signal turned out to be 0.027 E-score.

Turning to GAATCACC, the binding signal was -0.0218 E-score.

CACACAAG came in with a binding signal of -0.0988 E-score.

The sequence ACGTCCTA displayed a binding signal of 0.0596 E-score.

As for AGGATAAT, the binding signal came out at 0.2 E-score.

The sequence AAAGTCGT displayed a binding signal of 0.125 E-score.

Consider CGGCTAAC, for which the binding signal worked out at 0.00729 E-score.

Regarding GGCGAGTA, the binding signal was 0.0244 E-score.

GATGCAGC gave a binding signal of -0.0978 E-score.
